Results from PubChem BioAssay AID686978 (National Center for Advancing Translational Sciences (NCATS), 2013).
Among all 420,000 compounds or so, about 64,000 (15%) were called active. Inconclusive means that the source gave no clear call. Such entries were picked first, then a sample of the others. Calls come from the whole dose curve; as a rule, active = well fitted inhibition curve with a large enough effect; inconclusive = small, poorly fitted or top-dose-only effect; inactive = flat fitted curve, though single readings scatter. No potency is given beside an inconclusive call; the fits are too rough.
% is set by controls: 0 for no effect and ±100 for the full control effect; potency is the fitted concentration of half-maximal effect; tags give direction and shape of the fitted curve.

Assay: qHTS for Inhibitors of human tyrosyl-DNA phosphodiesterase 1 (TDP1): qHTS in cells in absence of CPT; note: nearly all actives have a fitted effect of over 55% in size
Details: DT40 Tdp1-/- hTDP1 cells, no CPT, ATP luminescence, 48 h; activity change, negative = growth inhibition: at 46.2 µM (top of the series) unless noted
Procedure, shortened: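 Chicken DT40 Tdp1-/- cells complemented with human TDP1, screened without camptothecin (DMSO vehicle only), 400 cells/well. Compounds pin-transferred, cells incubated at 37 °C for at least 48 hr. Growth read as ATP-dependent luminescence (CellTiter-Glo, 30 min at RT).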
In the case of `C[C@@H]1CN([C@@H](C)CO)S(=O)(=O)c2ccc(Br)cc2O[C@H]1CN(C)C(=O)c1cccc(F)c1`, the Potency was inconclusive [inhibitor, single point]. In the case of `CC(OC(=O)CC1CCCCC1)C(=O)Nc1ccc(S(N)(=O)=O)cc1` (stereo not given), the Potency was “inactive”. For `COc1ccc(-c2csc(N(CC3CCCO3)C(=O)c3ccc(C)cc3)n2)cc1` (stereo not given), the Potency was active: 23.1 µM. In the case of `COc1ccc(NC(=O)c2nc[nH]c2C(=O)NCC(=O)OC(C)(C)C)cc1`, the Potency was inconclusive [inhibitor, single point]. With `O=C(NCC1CC1)c1cc(-c2ccccc2)nn1CC1CC(c2cccc([N+](=O)[O-])c2)=NO1` (stereo not given) the activity change, negative = growth inhibition was inconclusive: -33.8% [inhibitor]. For `COc1ccc(/C(N)=N/OC(=O)CCCc2ccccc2)cc1`, the Potency was “inactive”. With `CCOC(=O)c1ccc(N2C(=O)c3n[nH]c(-c4ccco4)c3C2c2ccc(F)cc2)cc1` (stereo not given) the Potency was active: 23.1 µM. In the case of `COc1ccccc1CNC(=O)C(CC(C)C)N1Cc2ccccc2C1=O` (stereo not given), the Potency was active: 20.6 µM. In the case of `O=C(CSc1nccn1Cc1ccc(Cl)cc1)NCc1ccccc1`, the Potency was active: 29.1 µM. In the case of `CCOC(=O)C1=C(C)OC(N)=C(C#N)C1c1ccoc1` (stereo not given), the Potency was inconclusive [inhibitor, single point]. With `CCn1c(CC(=O)Nc2ccc(C)cc2)nnc1SCC(=O)N1CCN(c2ccccc2)CC1` the Potency was inconclusive [inhibitor, single point]. For `O=c1[nH]c(C2CCCN(S(=O)(=O)Cc3ccccc3)C2)nc2c1nnn2Cc1cccc(Cl)c1` (stereo not given), the Potency was inconclusive [inhibitor, single point]. With `c1cc(SSc2ccncc2)ccn1` the Potency was active: 16.4 µM. For `O=C(NCC1CCCN1S(=O)(=O)c1cccs1)c1c(F)cccc1F` (stereo not given), the Potency was inconclusive [inhibitor, single point]. In the case of `O=C(Cn1cnc2c(cnn2-c2ccc(F)cc2)c1=O)N1CCCc2ccccc21`, the Potency was “inactive”. With `CCOc1ccc(CCNc2nc3ccc(C)cc3n3cnnc23)cc1OCC` the Potency was active: 16.4 µM. With `Cc1ccc(NC(=S)NNC(=S)NNc2ccccc2)cc1C` the Potency was active: 23.1 µM. With `Cc1ccc(-c2csc3n[nH]c(=S)n23)cc1` the Potency was “inactive”. With `CC(C)N(C)CCOC(=O)/C=C/c1ccccc1` the Potency was “inactive”. In the case of `CN(C)C(CNC(=O)CCCN1C(=O)c2cccc3cccc(c23)C1=O)c1ccccc1` (stereo not given), the Potency was inconclusive [inhibitor, single point]. In the case of `C=CCN(C(=O)CNC(=O)c1cccs1)C(C(=O)NC(C)(C)C)c1ccccc1` (stereo not given), the Potency was “inactive”. For `O=C(N/N=C/c1cccc([N+](=O)[O-])c1)C1CC(=O)N(c2ccc(F)cc2)C1` (stereo not given), the Potency was inconclusive [inhibitor, full curve, poor fit]. In the case of `Cc1nc2ccccn2c(=O)c1NC(=O)c1ccc(Br)o1`, the Potency was “inactive”. For `O=C(CN1CCOCC1)Nc1cccc(C(F)(F)F)c1`, the Potency was “inactive”. For `CCOc1ccc(C(=O)NCC(=O)NNC(=O)CN(C)S(=O)(=O)c2ccc(Cl)cc2)cc1`, the Potency was “inactive”. With `COc1ccccc1NC(=O)C(C/C=C(/C)Cl)C(C)=O` (stereo not given) the Potency was inconclusive [inhibitor, single point]. In the case of `CC1CN(S(=O)(=O)c2cccc(C(=O)N(C)C3CCCCC3)c2)CC(C)O1` (stereo not given), the Potency was active: 10.3 µM. In the case of `CCOc1ccccc1NS(=O)(=O)c1ccc2c(c1)n(C)c(=O)c(=O)n2C`, the Potency was “inactive”. In the case of `CCCOc1ccccc1NC(=O)/C=C/C(N)=O`, the Potency was active: 2.51 µM. For `CN(Cc1cccc(Cl)c1)C(=O)C1CSC2(C)CCC(=O)N12` (stereo not given), the Potency was active: 20.6 µM. With `CCOc1cccc(C=Nc2cc(C)cc(C)c2O)c1O` the Potency was inconclusive [inhibitor, single point]. In the case of `COc1ccc(CCNS(=O)(=O)c2csc(C(N)=O)c2)cc1OC`, the activity change, negative = growth inhibition was inconclusive: -30.5% [inhibitor]. For `O=C(NCCCN1CCOCC1)c1ccc2c(c1)N(Cc1cccc(F)c1)C(=O)c1ccccc1S2`, the Potency was inconclusive [inhibitor, single point]. With `CCOc1cc2c(cc1OCC)C(c1c(F)cccc1Cl)CC(=O)N2` (stereo not given) the Potency was inconclusive [inhibitor, single point]. In the case of `Cc1ccc(S(=O)(=O)n2nc(-c3ccc(Cl)cc3)nc2NCc2ccco2)cc1`, the Potency was inconclusive [inhibitor, single point]. In the case of `C[N+]1(CC(=O)c2ccccc2)CCc2ccccc2C1` (stereo not given), the Potency was inconclusive [inhibitor, partial curve]. In the case of `O=C(Nc1ccncc1)c1cc2ccccc2o1`, the Potency was active: 8.2 µM. For `CC(=O)Nc1ccc(C(=O)N2CCCCC2c2cc(C(=O)Nc3cccc(C#N)c3)no2)cc1` (stereo not given), the Potency was inconclusive [inhibitor, single point]. With `COc1ccc(C)cc1NC(=O)Cn1cc(S(=O)(=O)Cc2ccccc2Cl)c2ccccc21` the Potency was active: 20.6 µM. With `Cc1ccc(-c2cc(C(=O)N3CCN(c4ccccc4)CC3)c3ccccc3n2)cc1C` the Potency was active: 16.4 µM. With `CSCCC(=O)N1CCCC(CO)(CCCc2ccccc2)C1` (stereo not given) the Potency was inconclusive [inhibitor, single point]. In the case of `CC1CCN(S(=O)(=O)c2cc(C(=O)Nc3ccc(Br)cc3F)n(C)c2)CC1`, the Potency was inconclusive [inhibitor, partial curve, poor fit]. With `O=C(CN(Cc1ccccc1F)S(=O)(=O)c1ccc(Cl)cc1)NCC1CCCO1` (stereo not given) the Potency was inconclusive [inhibitor, full curve]. In the case of `Cc1ccc(S(=O)(=O)N2CCN(S(=O)(=O)N3CCCCC3)CC2)c(C)c1`, the Potency was “inactive”. With `Cc1sc2c(c1C)c(=O)n(-c1ccc(Cl)cc1)c(=O)n2Cc1c(F)cccc1Cl` the Potency was “inactive”. With `CCOC(=O)c1c(S(=O)(=O)N2CCC(C(=O)N3CCN(c4cc(C)ccc4C)CC3)CC2)c(C)n(C)c1C` the Potency was active: 23.1 µM. With `CCCCCCC1CCC(C(=O)NC(CCSC)C(=O)NC(C(=O)OC)C(C)C)CC1` (stereo not given) the Potency was inconclusive [inhibitor, single point]. With `Cc1cc(OCC(=O)Nc2ccccn2)c2c(C)cc(=O)oc2c1` the Potency was inconclusive [inhibitor, partial curve]. In the case of `Cc1ccc(CN2CCN(Cc3cnn(-c4ccc(Cl)cc4)c3)CC2CCO)o1` (stereo not given), the Potency was inconclusive [inhibitor, single point]. With `C#CCNC(=O)C[C@@H]1C[C@@]2(C(=O)OCC)CCCC=C2N(CCCCCCCC)C1=O` the Potency was active: 13 µM. With `CCOC(=O)c1cccc(NC(=O)Nc2ccc(OCC)cc2)c1` the Potency was inconclusive [inhibitor, partial curve]. For `CCS(=O)(=O)NCCNc1ccc([N+](=O)[O-])cc1`, the Potency was “inactive”. For `O=C(c1ccccc1)C(O)C(c1ccccc1)N1CCOCC1` (stereo not given), the Potency was “inactive”. With `N/C(=N\OCc1ccc([N+](=O)[O-])cc1)c1ccncc1` the Potency was “inactive”. In the case of `C/C(=N\NC(=O)c1cc(C2CC2)nc2ccccc12)c1ccc(C)s1`, the Potency was inconclusive [inhibitor, single point]. For `Fc1cccc2sc(N3CCOCC3)nc12`, the Potency was “inactive”. For `Cc1ccc(C(=O)O)cc1NC(=O)CCc1c(C)noc1C`, the Potency was “inactive”. In the case of `COc1ccc(CNC(=O)C2CCCN2S(=O)(=O)c2ccc(S(=O)(=O)N(C)C)cc2)cc1` (stereo not given), the Potency was inconclusive [inhibitor, single point]. In the case of `Cc1ccc(N2CC(NC(=O)C(=O)c3c[nH]c4ccccc34)CC2=O)cc1` (stereo not given), the Potency was “inactive”. In the case of `COc1ccccc1OCC(=O)NCC1(N(C)C)CCCCC1`, the Potency was “inactive”. In the case of `COc1ccc(C(=O)Nc2ccccc2C(=O)NC(Cc2c[nH]c3ccccc23)C(=O)O)cc1` (stereo not given), the Potency was inconclusive [inhibitor, single point]. In the case of `O=C(CCc1nnc2ccc(NCc3ccccc3Cl)nn12)NCC1CCN(C2CCCC2)C1` (stereo not given), the Potency was “inactive”. For `CC(C)CCNC(=O)c1ccc2c(c1)N(Cc1ccccc1F)C(=O)c1ccccc1S2=O` (stereo not given), the Potency was active: 20.6 µM. For `CN1C(=O)CC(N2CCN(c3ccccn3)CC2)C1=O` (stereo not given), the Potency was “inactive”. With `COc1ccc(OC)c(-c2cc(C(=O)N3CCc4ccccc4C3)no2)c1` the Potency was inconclusive [inhibitor, single point]. With `CCOc1cc(N2CCOCC2)c(OCC)cc1NC(=O)COC(=O)C1CCCN1S(=O)(=O)c1ccccc1F` (stereo not given) the Potency was inconclusive [inhibitor, single point]. With `CCSc1nnc2c(n1)OC(C)(C)Nc1ccccc1-2` the Potency was inconclusive [inhibitor, single point]. For `O=C(/C(=C/O)N=Nc1ccccc1)c1ccncc1`, the Potency was inconclusive [inhibitor, single point]. For `N#Cc1ccccc1NC(=O)COc1c(Br)cc(Br)c2cccnc12`, the Potency was inconclusive [inhibitor, single point]. For `Cc1ccc(-c2c[n+]3c(n2-c2ccccc2)SCC3)cc1`, the Potency was active: 2.31 µM. For `CC(C)CCNC(=O)c1ccc2c(c1)N(Cc1ccccc1)C(=O)CS2=O` (stereo not given), the Potency was inconclusive [inhibitor, partial curve, poor fit]. For `COC(=O)c1sccc1NC(=O)c1cc(-c2cc(C)ccc2C)nc2ccccc12`, the Potency was inconclusive [inhibitor, single point]. For `CN1CCN(C(=O)C[C@H]2C[C@H]3c4cc(NC(=O)NC5CCCCC5)ccc4O[C@H]3[C@@H](CO)O2)CC1`, the Potency was “inactive”. For `CC(=O)c1c(C)[nH]c(C(=O)CN2C(=O)NC(C)(CCC(C)C)C2=O)c1C` (stereo not given), the Potency was inconclusive [inhibitor, partial curve]. For `CC(=O)OCC1=C(C(=O)O)N2C(=O)[C@@H](NC(=O)Cc3ccccc3)[C@H]2SC1`, the Potency was “inactive”.
